Experimental data as given in PMC4336329 (PLoS ONE, 2015).
Screen size: about 310,000 compounds; about 2,200 (0.71%) showed an effect of 50% or more. The effect is printed as a negative number. The list shows a part of the results.

target: human ether-à-go-go-related gene (hERG) potassium channel (human, UniProt Q12809); assay: primary screen, population patch clamp on CHO cells stably expressing hERG
Sequence (Q12809 whole entry, looked up): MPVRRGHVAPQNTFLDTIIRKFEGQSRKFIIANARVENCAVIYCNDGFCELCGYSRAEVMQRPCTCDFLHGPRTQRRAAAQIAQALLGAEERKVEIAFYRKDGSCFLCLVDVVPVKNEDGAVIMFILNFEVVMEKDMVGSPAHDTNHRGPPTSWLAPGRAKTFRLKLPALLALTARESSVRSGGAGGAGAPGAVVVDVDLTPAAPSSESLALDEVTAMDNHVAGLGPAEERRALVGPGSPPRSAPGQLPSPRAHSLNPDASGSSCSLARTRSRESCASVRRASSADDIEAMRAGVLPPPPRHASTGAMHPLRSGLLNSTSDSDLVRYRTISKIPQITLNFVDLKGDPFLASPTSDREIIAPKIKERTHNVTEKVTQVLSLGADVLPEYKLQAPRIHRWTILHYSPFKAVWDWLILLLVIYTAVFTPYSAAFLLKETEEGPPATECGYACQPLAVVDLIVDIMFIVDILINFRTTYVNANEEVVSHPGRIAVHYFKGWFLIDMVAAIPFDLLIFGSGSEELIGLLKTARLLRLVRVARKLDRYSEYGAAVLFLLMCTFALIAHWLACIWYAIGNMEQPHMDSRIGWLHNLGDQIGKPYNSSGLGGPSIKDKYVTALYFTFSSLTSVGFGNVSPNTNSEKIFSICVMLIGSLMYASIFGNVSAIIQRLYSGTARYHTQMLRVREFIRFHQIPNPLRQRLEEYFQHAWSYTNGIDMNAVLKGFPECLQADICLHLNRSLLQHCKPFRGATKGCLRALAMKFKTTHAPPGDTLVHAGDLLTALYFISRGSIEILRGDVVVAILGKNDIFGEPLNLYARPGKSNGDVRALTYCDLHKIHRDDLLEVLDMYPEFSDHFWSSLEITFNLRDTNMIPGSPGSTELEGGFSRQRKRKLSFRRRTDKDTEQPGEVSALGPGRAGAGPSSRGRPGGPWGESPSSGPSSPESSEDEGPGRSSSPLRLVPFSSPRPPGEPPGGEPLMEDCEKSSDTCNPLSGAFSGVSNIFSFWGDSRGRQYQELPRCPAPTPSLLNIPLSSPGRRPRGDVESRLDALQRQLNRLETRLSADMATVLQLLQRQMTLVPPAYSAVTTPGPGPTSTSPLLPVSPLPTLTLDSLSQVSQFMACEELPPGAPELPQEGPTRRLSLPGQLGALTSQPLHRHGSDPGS

Compared with O=C(O)CCCC(=O)NS(=O)(=O)c1ccc(Cl)cc1, CCN1CCN(CCOc2ccc(Cl)cc2)CC1.O=C(O)C(=O)O is lower in “hERG current change (%, negative = inhibition) at 1uM” value: 11.7% for the first, -9.38% for the second.

Going from O=C(COc1ccccc1)N1CCN=C1SCc1ccccc1F to O=C1O/C(=C/c2ccccc2)c2ccccc21, the “hERG current change (%, negative = inhibition) at 1uM” value falls from 10.7% to -0.35%.

Compared with Cc1ccc(Cn2nnc3c(=O)n(Cc4cccc(C)c4)cnc32)cc1, Cc1ccc(-n2ncc3c(=O)n(CC(=O)N4CCN(C(=O)c5ccco5)CC4)cnc32)cc1 is lower in “hERG current change (%, negative = inhibition) at 1uM” value: 14.9% for the first, 6.22% for the second.

First: CCOC(=O)C(C)n1nc(C)c2sc3ccccc3c2c1=O (stereo not drawn)
Second: CCOC(=O)C1=C(N)Oc2cc(C)oc(=O)c2C1c1cccnc1 (stereo not drawn)
The “hERG current change (%, negative = inhibition) at 1uM” value of the first is lower: 5.71% for the first, 13.4% for the second.

First: COc1cccc(N2CC(C(=O)Nc3c(C(N)=O)oc4ccccc34)CC2=O)c1 (stereo not drawn)
Second: COc1ccc(-c2cc(C(=O)NC3CC3)c3ccccc3n2)cc1
The “hERG current change (%, negative = inhibition) at 1uM” value of the first is higher: 7.62% for the first, -8.83% for the second.

Going from Cc1ccc(N(C)C(=O)Oc2cccc3cccnc23)cc1 to Cc1ccc(NC(=O)c2ccc(CSc3nnc(C)s3)cc2)cc1, the “hERG current change (%, negative = inhibition) at 1uM” value falls from 14.8% to 13.2%.

Going from O=C1CSc2ccc(C(=O)Nc3cccc(S(=O)(=O)Nc4ccc(Br)cc4)c3)cc2N1 to CCC(=O)Oc1cccc(C(=O)Nc2cccc(NC(=O)c3ccco3)c2)c1, the “hERG current change (%, negative = inhibition) at 1uM” value falls from 12% to 7.24%.

First: CCOc1ccc(C2C(C(=O)Nc3cc(C)on3)c3ccccc3C(=O)N2CCN2CCOCC2)cc1 (stereo not drawn)
Second: COc1ccc(C2/C(=C(/O)c3ccccc3)C(=O)C(=O)N2CCN2CCOCC2)c(OC)c1 (stereo not drawn)
The “hERG current change (%, negative = inhibition) at 1uM” value of the first is higher: 16.4% for the first, -9.29% for the second.

Going from Cc1ccccc1C(=O)NNC(=O)c1ccc(F)cc1 to O=C(Nc1ncc2c(n1)-c1ccccc1OC2)c1ccc(F)cc1, the “hERG current change (%, negative = inhibition) at 1uM” value rises from -0.329% to 0.334%.

Compared with O=C1CC(c2ccc(F)cc2)Cc2nc(NCc3ccco3)ncc21 (stereo not drawn), N#Cc1ccccc1OCC(=O)N1N=C(c2cccs2)CC1c1ccco1 (stereo not drawn) is lower in “hERG current change (%, negative = inhibition) at 1uM” value: 5.29% for the first, -1.57% for the second.

Going from Cc1ccc(NC(=O)c2ccsc2)cc1NS(C)(=O)=O to O=C(Nc1ccc(S(=O)(=O)N2CCCC2)cc1)c1cccs1, the “hERG current change (%, negative = inhibition) at 1uM” value rises from 15.1% to 28.9%.

First: CC(C)CN(C(=O)c1ccc(Br)o1)C1CCS(=O)(=O)C1 (stereo not drawn)
Second: CC(C)C[C@@H](C(=O)NCC1CCCO1)N1C(=O)N2CCc3c([nH]c4ccccc34)[C@@]2(C)C1=O (stereo partly drawn)
The “hERG current change (%, negative = inhibition) at 1uM” value of the first is higher: -0.549% for the first, -10% for the second.

Going from O=C(CCC1CCCN(C(=O)c2cc(C3CC3)[nH]n2)C1)N1CCN(c2ccccn2)CC1 (stereo not drawn) to COc1ccc(N2CCN(C(=O)CSc3nnc(NC(=O)C4CCC4)s3)CC2)cc1, the “hERG current change (%, negative = inhibition) at 1uM” value rises from 10.9% to 11.2%.

Compared with CCc1ccc2c(c1)C(c1ccc([N+](=O)[O-])cc1)=NNC(c1ccc(C)cc1)=N2, Cc1ccc(-c2nnc(Nc3ccc(O)cc3)c3ccccc23)cc1S(=O)(=O)NCCO is lower in “hERG current change (%, negative = inhibition) at 1uM” value: 16.7% for the first, 11.2% for the second.

Going from CCNC(=S)N(CCc1c(C)[nH]c2ccc(C)cc12)Cc1cccnc1 to Cc1nc(NC(=O)c2cccnc2)ccc1Br, the “hERG current change (%, negative = inhibition) at 1uM” value falls from 11.4% to -3.97%.

Going from COc1ccc(S(=O)(=O)NC2CCCC2)cc1Cl to O=C(NC1CCCCC1)/C(=N\O)c1ccccn1, the “hERG current change (%, negative = inhibition) at 1uM” value rises from -7.9% to 15.5%.

Compared with C=CCOc1ccc(C(=O)Nc2ncn[nH]2)cc1, O=C(Nc1cccc(-n2cnnn2)c1)c1ccoc1COc1ccc(Cl)cc1 is lower in “hERG current change (%, negative = inhibition) at 1uM” value: 23.3% for the first, 19.4% for the second.

Going from CC(C)c1cc(-c2cc(C(=O)NCc3ccccc3)on2)nc(NC2CCCC2)n1 to Cc1cc(C)nc(N2CCC(C(=O)NCc3cccc(C(F)(F)F)c3)CC2)n1, the “hERG current change (%, negative = inhibition) at 1uM” value falls from 13.1% to 12.1%.

Compared with Cc1cc(NC(C)C)n2c(nc3ccccc32)c1C#N, CC1=CC(=C(C#N)c2nc3ccccc3s2)C=C(C)N1c1ccc(F)cc1 is higher in “hERG current change (%, negative = inhibition) at 1uM” value: 10.1% for the first, 11.5% for the second.

Going from O=C(Nc1ccc(F)cc1F)c1cccc(S(=O)(=O)N2CCCCC2)c1 to CCN(c1ccccc1)S(=O)(=O)c1cc(C(=O)Nc2ccccc2Cl)ccc1F, the “hERG current change (%, negative = inhibition) at 1uM” value rises from 10.2% to 14.3%.

First: O=c1c(F)cn(C2CCCO2)c(=O)n1Cc1ccc(Cl)cc1 (stereo not drawn)
Second: O=C(Cc1ccc(Cl)cc1)N1CCC2(CC1)NCCc1[nH]cnc12
The “hERG current change (%, negative = inhibition) at 1uM” value of the first is lower: 3.5% for the first, 16.9% for the second.

Going from CCN(CC)C(=O)Cn1cc(C(=O)C(=O)N2CCN(Cc3ccc4c(c3)OCO4)CC2)c2ccccc21 to CCOc1cc(C(=O)OCC(=O)c2c(C)[nH]c3ccccc23)ccc1OCC(=O)N1CCOCC1, the “hERG current change (%, negative = inhibition) at 1uM” value falls from 11.1% to 3.93%.

Going from CN(C)C(=O)Oc1ccc(Br)cc1C(=O)Nc1ccc(F)c(Cl)c1 to COc1ccc(C(=O)CC(=O)C(=O)Nc2cc(Cl)c(OC)cc2OC)cc1, the “hERG current change (%, negative = inhibition) at 1uM” value falls from 12.7% to 6.6%.

Compared with Cc1cc(C(=O)O)ccc1N/C=C1\CCCC(C)C1=O (stereo not drawn), Cc1cc(N2CCOCC2)c(F)cc1C(=O)c1ccccc1 is higher in “hERG current change (%, negative = inhibition) at 1uM” value: 2.49% for the first, 16.1% for the second.

Going from c1ccc(C2=Nc3ccccc3SC2c2nc3ccccc3[nH]2)cc1 (stereo not drawn) to O=C(O)CCn1cc(/C=C2/NC(=S)N(c3ccccc3)C2=O)c(-c2ccccc2)n1, the “hERG current change (%, negative = inhibition) at 1uM” value rises from -32.8% to 15.7%.

Going from CCn1cc(C(=O)NCCCN(C)c2ccccc2)c(=O)c2cc(S(=O)(=O)N(C)C)ccc21 to Cc1c(/C=N\NC(=O)c2cc3ccccc3o2)c2ccccc2n1C, the “hERG current change (%, negative = inhibition) at 1uM” value rises from 4.63% to 6.96%.

Going from CN(C)c1cccc(NC(=O)c2ccco2)c1 to Cc1cccc(NC(=S)NC(=O)CC2CC(C)(C)OC2=O)c1 (stereo not drawn), the “hERG current change (%, negative = inhibition) at 1uM” value rises from -5.84% to 16.3%.

Going from O=C(Cn1nc(C(F)F)cc1C(F)F)NNC(=S)Nc1ccc(Cl)cc1 to Cn1ccnc1SCC(=O)Nc1cc(F)ccc1F, the “hERG current change (%, negative = inhibition) at 1uM” value rises from -0.623% to 8.25%.

Going from CC(=O)c1ccc(NC(=O)CSc2ccc3nnc(-c4ccccn4)n3n2)cc1 to Cn1c(SCC(=O)NCCc2ccccc2)nnc1-c1ccncc1, the “hERG current change (%, negative = inhibition) at 1uM” value rises from -22.5% to 16.4%.

Compared with COc1ccc(C(=O)N2CCn3c(C)ccc3C2C)cc1 (stereo not drawn), COc1ccc(N(CC(=O)Nc2ccc(C)cn2)S(=O)(=O)c2c(C)noc2C)cc1 is lower in “hERG current change (%, negative = inhibition) at 1uM” value: 12.7% for the first, -1.01% for the second.

First: COc1ccc(C2SCC(=O)Nc3c2c(C)nn3C2CCOC(C)(C)C2)cc1 (stereo not drawn)
Second: COc1ccc(N2C(=O)CC(Sc3nc4ccccc4s3)C2=O)cc1OC (stereo not drawn)
The “hERG current change (%, negative = inhibition) at 1uM” value of the first is higher: 14.8% for the first, 10.5% for the second.

First: CCOCCCNCc1ccc(OCC(=O)N2CCOCC2)c(OC)c1.Cl
Second: CCN1CCN(CCNC(=O)C2CCCN(Cc3nc(-c4cccc(Cl)c4)oc3C)C2)CC1 (stereo not drawn)
The “hERG current change (%, negative = inhibition) at 1uM” value of the first is higher: 12.1% for the first, 3.86% for the second.

Compared with CCOc1cccc(C(=O)NNC(=O)C2C3C=CC(C3)C2C(=O)O)c1 (stereo not drawn), COc1ccccc1C(=O)NCCCNC(=O)c1cnccn1 is higher in “hERG current change (%, negative = inhibition) at 1uM” value: 6.67% for the first, 11.3% for the second.

First: COc1ccc(Cl)cc1NC(=O)C1CC(c2ccccc2O)=NO1 (stereo not drawn)
Second: O=C(NC1CCCc2ccccc21)c1ccccc1Cl (stereo not drawn)
The “hERG current change (%, negative = inhibition) at 1uM” value of the first is lower: 12.5% for the first, 12.8% for the second.

First: CCN(CC)c1ccc(NC(=O)COC(=O)CSc2ccc(Br)cc2C)cc1.O=S(=O)(O)O
Second: CCC(=O)Nc1ccc(C(=O)CN2C(=O)NC3(CCCCCC3)C2=O)cc1
The “hERG current change (%, negative = inhibition) at 1uM” value of the first is lower: 2.63% for the first, 11.2% for the second.

Going from O=C(CCC(=O)N1CCOc2ccc(Cl)cc21)NCCCN1CCN(c2ccccc2F)CC1 to C=C1CCN([C@@H](Cc2ccccc2)C(=O)NCc2ccc(Cl)cc2)S(=O)(=O)c2ccccc21, the “hERG current change (%, negative = inhibition) at 1uM” value rises from -22.2% to 9.72%.

First: CN1CCN(c2ncc(C=O)s2)CC1
Second: Nc1c2c(nc3sc4c(c13)CCCCC4)CCCC2
The “hERG current change (%, negative = inhibition) at 1uM” value of the first is higher: 13% for the first, -0.57% for the second.

First: C=CCn1c(-c2ccc3ncccc3c2)n[nH]c1=S
Second: Cc1nc(NC(=O)c2ccccc2)sc1-c1csc(N)n1
The “hERG current change (%, negative = inhibition) at 1uM” value of the first is higher: 15.3% for the first, 9.83% for the second.

First: Cc1nnc(SCc2c(Cl)cccc2Cl)n(N)c1=O
Second: O=C(Nc1ccc(Cl)c(Cl)c1)Nc1nnc(CC2=CCCCC2)s1
The “hERG current change (%, negative = inhibition) at 1uM” value of the first is lower: 9.37% for the first, 10.8% for the second.

Compared with CCOC(=O)C1=C(C)N(C)C(C)=C(C(=O)OCC)C1c1ccc(Cl)cc1, COc1ccc(C(=O)NCc2nnc(SCC(=O)c3ccc(F)cc3)n2C)cc1OC is higher in “hERG current change (%, negative = inhibition) at 1uM” value: -8.96% for the first, -5.57% for the second.

Compared with CC(C)[C@H](NC(=O)NCc1ccco1)C(=O)O, COc1cccc(CNC(=O)c2ccccc2C(=O)NC(C)(C)C(=O)NCc2cccc(OC)c2)c1 is lower in “hERG current change (%, negative = inhibition) at 1uM” value: 13.8% for the first, 12.8% for the second.

Going from NC(=O)[C@H]1CC2(CC(c3cccc(NC(=O)[C@H]4CCC(=O)N4)c3)=NO2)CN1C(=O)c1ccccc1C(=O)c1ccccc1 (stereo partly drawn) to FC(F)(F)c1cccc(NC(=S)NC(c2ccccc2)c2ccccc2)c1, the “hERG current change (%, negative = inhibition) at 1uM” value rises from 8.06% to 9.67%.

First: Cn1nnc(NC(=O)c2cccc([N+](=O)[O-])c2)n1
Second: Cc1onc(-c2ccccc2)c1C(=O)NC(=S)Nc1sc2c(c1C#N)CCCC2
The “hERG current change (%, negative = inhibition) at 1uM” value of the first is higher: 9.93% for the first, 3.61% for the second.

CCOc1nc(Nc2ccccc2F)nc(OCC)n1 was tested, and the “hERG current change (%, negative = inhibition) at 1uM” value was 6.95%.
